The subject of the test is U2OS cells stably expressing G3BP-GFP or GFP-LC3. Kind of test: Stress granules (G3BP-GFP) and autophagosomes (GFP-LC3).

The record followed here is patent US8865653B2, “Method of treatment for immunogenic treatment resistant cancer” (Institut Gustave Roussy, priority 2010, dated 2014).

As to `[NH2][Pt]([NH2])([Cl])[Cl]` [CDDP, cisplatin], the “formation of stress granules and macroautophagy” value is “failed to stimulate the formation of stress granules and macroautophagy”.
